Assay results from the RNAGym collection of RNA variant scans (doi:10.1093/nar/gkz1192).
Read counts are not given, so values of variants with three or more changes are uncertain.

B1: CPEB3 Ribozyme (parent)
chain: UAACAGGGGGCCACAGCAGAAGCGUUCACGUCGCAGCCCCUGUCAGAUUCUGGUGAAUCUGCGAAUUCUGCUGUAUAUCUC

Variants of: B1
Assay: self-cleavage, relative activity (ratio to wild type); higher = more cleavage; in vitro, sequencing
Procedure, shortened: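 Barcoded CPEB3 ribozyme mutants, produced by rounds of error-prone PCR, self-cleaved while being transcribed with T7 RNA polymerase for 5 hours at 37°C and during a subsequent 15 min DNase I step before EDTA was added. Sequencing of template-switched cDNA on Illumina gave cleaved and total reads, and DNA sequencing assigned barcodes to variants. Each variant's relative activity is its cleaved/total read fraction divided by the unmutated ribozyme's fraction, averaged across three batches. A variant needed a minimum of 5 reads.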
U31A U67A C79A showed a self-cleavage of 0.23.
With C29U U69C U72C the self-cleavage was 0.07.
Work on C29U U49C A65G yielded a self-cleavage of 0.3.
In the case of U31A A56G U69C, the self-cleavage is reported as 0.2.
In the case of U31C A35G G63A A64G U80A, the self-cleavage is reported as 1.18.
For U31C A47U U58C U60A, the self-cleavage was 0.09.
Variant U31A U49C A75G has a self-cleavage of 0.22.
For G30U C39U U49C A57U U60C G61C, the self-cleavage was 0.06.
A28G U41C G53A A77G gave a self-cleavage of 0.89.
Variant A28G U48C A56G has a self-cleavage of 0.14.
Variant U31C G33U U41A C71A has a self-cleavage of 0.06.
For U31C U41C U67C, the self-cleavage was 0.5.
Variant C29U U31C A45U U51C U78A has a self-cleavage of 0.13.
Variant A28G U51C G52C A56G U58C has a self-cleavage of 0.26.
Variant U31C A56G U80C has a self-cleavage of 0.49.
Work on U31C A64G U72C U80A yielded a self-cleavage of 0.77.
In the case of A28U U31C A57G, the self-cleavage is reported as 0.31.
Variant A28G U51C U67G C79U has a self-cleavage of 0.13.
C29U U31A A64U gave a self-cleavage of 0.23.
A28G U76A C81U gave a self-cleavage of 0.93.
Variant A28U A35G U43C A56U U67G has a self-cleavage of 0.23.
G30A U72C A75G showed a self-cleavage of 0.09.
C29U A75U A77U gave a self-cleavage of 0.51.
For U31A A35G U43C U66C U78C, the self-cleavage was 0.15.
With A28G U49A A56G A65G U72A U74A U78A the self-cleavage was 0.04.
Work on G30A A45U G53U U54C yielded a self-cleavage of 0.13.
For A28U U43C U48C U54C U80C, the self-cleavage was 0.1.
G30A A35G U49C G52U U74C U76C gave a self-cleavage of 0.07.
A28U U43C A45U U72A gave a self-cleavage of 0.37.
A28U A45G A75U showed a self-cleavage of 0.54.
In the case of G30A U31C U66C, the self-cleavage is reported as 0.13.
For C29U A47U U69A, the self-cleavage was 0.14.
In the case of A28U C40U U60C, the self-cleavage is reported as 0.3.
Work on A28U A35G U60C yielded a self-cleavage of 0.81.
G30A U43G U69A A75G U80A showed a self-cleavage of 0.12.
With C29U A35G G63C the self-cleavage was 1.21.
Variant A28U U41A A56G A65G has a self-cleavage of 0.13.
Work on U31C A45U A47U U69A yielded a self-cleavage of 0.15.
G30C A65C U69A showed a self-cleavage of 0.09.
In the case of U31A U60C A65G, the self-cleavage is reported as 0.17.
A28U U31A U41C showed a self-cleavage of 0.24.
For U31C A56G G63C A64C U69A, the self-cleavage was 0.25.
For A28U A56U U76A, the self-cleavage was 0.42.
Work on C29U A35U A56U yielded a self-cleavage of 0.22.
For U31C C62A C81A, the self-cleavage was 0.16.
A28G U51A U66A U72A showed a self-cleavage of 0.21.
U31A G33A U41A U49C U54A U58C showed a self-cleavage of 0.12.
In the case of C29U A47G U51C U80A, the self-cleavage is reported as 0.29.
Variant A28U C38U C50A U69A U74A has a self-cleavage of 0.06.
In the case of U31A U66A U74C, the self-cleavage is reported as 0.45.
With A28U C40U U51A the self-cleavage was 0.67.
With C29A A45G A47G G52A the self-cleavage was 0.22.
With G30A C39A A45G the self-cleavage was 0.38.
A28G U72C C79U showed a self-cleavage of 0.9.
With U31C A35U A45U the self-cleavage was 0.15.
A28G U43C U58C A77U showed a self-cleavage of 0.17.
C29U C39U A45C G46U A57G A64G showed a self-cleavage of 0.
In the case of U31A U51C U74G U78C, the self-cleavage is reported as 0.78.
With C29A A64G U69A U80C the self-cleavage was 0.11.
In the case of C29U A35U U60C, the self-cleavage is reported as 0.08.
Work on A28U U43A U51C G52A U69A yielded a self-cleavage of 0.41.
With C29G A45G U54A the self-cleavage was 0.1.
U31C A56G U60A A65G U78C gave a self-cleavage of 0.11.
In the case of U31A A35G C50U U69C U72A, the self-cleavage is reported as 0.3.
U31C U41A C79U showed a self-cleavage of 0.12.
Work on C29U C39U A56G A64G yielded a self-cleavage of 0.11.
Work on G30A A64G U72C U74A yielded a self-cleavage of 0.14.
With A28U G70A U78C the self-cleavage was 0.5.
With U31C U41C U80A the self-cleavage was 1.03.
G30A U31C U48C A75G U78C gave a self-cleavage of 0.07.
Work on U31A U43C U51C G52C A64U yielded a self-cleavage of 0.33.
For G30U U41C C59A, the self-cleavage was 0.13.
For C29U U54C A65G U66C U78C U80A, the self-cleavage was 0.08.
Work on U31A U54C U74C U78C yielded a self-cleavage of 0.83.
For A28U U43A U72A, the self-cleavage was 0.64.
For U31C U41C U76C, the self-cleavage was 1.02.
In the case of C29G A56U U60G U80C, the self-cleavage is reported as 0.11.
In the case of U31C A35U G55U, the self-cleavage is reported as 0.23.
U31C C32U U41C A45U A57G U72G U74C showed a self-cleavage of 0.05.
For A28U C34U A56G U67A U72C, the self-cleavage was 0.16.
In the case of U31C A45G U80A, the self-cleavage is reported as 0.74.
A28G U60A U72C showed a self-cleavage of 0.06.
For C29U U60C U72A, the self-cleavage was 0.17.
In the case of U31A U41A C44U A45U, the self-cleavage is reported as 0.13.
